{"source": "the BET-seq Pho4 binding data (Le et al. 2018)", "note": "This is one part of the list. Values were computed here from the reads of four pooled replicates and scatter widely.", "data": [{"target": "T1, Pho4 (S. cerevisiae) (UniProt P07270)", "T1 sequence": "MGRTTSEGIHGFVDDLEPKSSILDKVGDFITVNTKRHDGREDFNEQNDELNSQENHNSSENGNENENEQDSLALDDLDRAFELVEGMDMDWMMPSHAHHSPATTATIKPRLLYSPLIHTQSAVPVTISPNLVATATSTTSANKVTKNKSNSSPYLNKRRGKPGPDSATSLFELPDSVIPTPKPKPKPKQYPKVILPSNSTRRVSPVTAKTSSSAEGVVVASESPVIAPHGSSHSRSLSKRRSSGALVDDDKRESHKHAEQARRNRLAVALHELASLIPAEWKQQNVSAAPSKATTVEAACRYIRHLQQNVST", "assay": "relative binding free energy (BET-seq); higher = weaker binding", "conditions": "reference: library average", "units": {"relative binding free energy": "kcal/mol"}, "values": [{"sequence": "TGAAACACGTGTTTGG", "relative binding free energy": 0.01}, {"sequence": "TATAGCACGTGGCTGG", "relative binding free energy": -0.14}, {"sequence": "AGTGCCACGTGGGCGG", "relative binding free energy": -0.24}, {"sequence": "GACTTCACGTGTGGGT", "relative binding free energy": 0.3}, {"sequence": "ATAACCACGTGGGGTT", "relative binding free energy": -0.17}, {"sequence": "AATGGCACGTGCATTG", "relative binding free energy": -0.14}, {"sequence": "TGTAGCACGTGCCGTT", "relative binding free energy": -0.08}, {"sequence": "AGGAGCACGTGGTGTA", "relative binding free energy": -0.23}, {"sequence": "TGTGGCACGTGGCCTA", "relative binding free energy": -0.29}, {"sequence": "GTGATCACGTGCTGGC", "relative binding free energy": 0.16}, {"sequence": "TATAGCACGTGTGCGG", "relative binding free energy": -0.06}, {"sequence": "AGTCGCACGTGTGGCT", "relative binding free energy": 0.08}, {"sequence": "ACGGGCACGTGTGCTG", "relative binding free energy": -0.13}, {"sequence": "TCCTGCACGTGATTGG", "relative binding free energy": 0.25}, {"sequence": "TCGTGCACGTGAGTTA", "relative binding free energy": 0.18}, {"sequence": "TCTCGCACGTGTTATT", "relative binding free energy": 0}, {"sequence": "CAGTTCACGTGTTGTT", "relative binding free energy": 0.22}, {"sequence": "CGGAACACGTGGGTGT", "relative binding free energy": -0.34}, {"sequence": "TGCGGCACGTGGTTGG", "relative binding free energy": -0.03}, {"sequence": "TGGGCCACGTGGTCGC", "relative binding free energy": -0.16}, {"sequence": "TAAGGCACGTGGCGGT", "relative binding free energy": -0.11}, {"sequence": "GTAATCACGTGGAATT", "relative binding free energy": 0.25}, {"sequence": "GTTTTCACGTGTTTGG", "relative binding free energy": 0.39}, {"sequence": "TTTCGCACGTGTGTGC", "relative binding free energy": 0.03}, {"sequence": "AGAGGCACGTGTTATG", "relative binding free energy": -0.15}, {"sequence": "TATAGCACGTGAGAGG", "relative binding free energy": 0.13}, {"sequence": "TGAAGCACGTGGGTAA", "relative binding free energy": -0.06}, {"sequence": "ATAGTCACGTGGAAAA", "relative binding free energy": 0.23}, {"sequence": "TATTTCACGTGTAAGG", "relative binding free energy": 0.43}, {"sequence": "TTCTGCACGTGCAGGT", "relative binding free energy": -0.01}, {"sequence": "AGTGGCACGTGAATAG", "relative binding free energy": 0.19}, {"sequence": "AGATGCACGTGGACGG", "relative binding free energy": 0.06}, {"sequence": "AGGGACACGTGTTTGA", "relative binding free energy": 0.05}, {"sequence": "GGGGGCACGTGGCAGT", "relative binding free energy": -0.25}, {"sequence": "TCATGCACGTGTGGAT", "relative binding free energy": 0.07}, {"sequence": "AAGAGCACGTGTTATT", "relative binding free energy": -0.07}, {"sequence": "GAGTGCACGTGCGGTG", "relative binding free energy": -0.16}, {"sequence": "GATTGCACGTGGTTAT", "relative binding free energy": 0.06}, {"sequence": "GTAGGCACGTGTTAGA", "relative binding free energy": -0.16}, {"sequence": "TTATGCACGTGCGGTA", "relative binding free energy": -0.09}, {"sequence": "AAGTGCACGTGCGGGT", "relative binding free energy": -0.08}, {"sequence": "AATTCCACGTGGTGGG", "relative binding free energy": -0.14}, {"sequence": "TGAAGCACGTGGCTGC", "relative binding free energy": 0.07}, {"sequence": "GATCGCACGTGTGGTT", "relative binding free energy": 0}, {"sequence": "AGTTACACGTGGCTTG", "relative binding free energy": -0.01}, {"sequence": "TGCGGCACGTGTTAAG", "relative binding free energy": -0.22}, {"sequence": "ATGTACACGTGGTAGG", "relative binding free energy": 0.03}, {"sequence": "TTTAGCACGTGGTACA", "relative binding free energy": -0.22}, {"sequence": "CGGTGCACGTGGGACT", "relative binding free energy": 0}, {"sequence": "AATTGCACGTGACGTG", "relative binding free energy": 0.08}, {"sequence": "GGTAACACGTGAAGCG", "relative binding free energy": 0.29}, {"sequence": "TTGTACACGTGTAAGG", "relative binding free energy": 0.24}, {"sequence": "TGCATCACGTGTGGTG", "relative binding free energy": 0.19}, {"sequence": "TATAACACGTGATGTA", "relative binding free energy": 0.07}, {"sequence": "TAGTGCACGTGGCGTC", "relative binding free energy": -0.09}, {"sequence": "TAGTGCACGTGGGATA", "relative binding free energy": -0.17}, {"sequence": "GTTCTCACGTGTTGGG", "relative binding free energy": 0.33}, {"sequence": "GTTGCCACGTGGGTAT", "relative binding free energy": -0.2}, {"sequence": "TGCGGCACGTGTTGTT", "relative binding free energy": -0.12}, {"sequence": "CTTGTCACGTGCGTAT", "relative binding free energy": 0.08}, {"sequence": "AGCATCACGTGAAGTG", "relative binding free energy": 0.24}, {"sequence": "GCTGGCACGTGAGTGA", "relative binding free energy": 0.15}, {"sequence": "GTGCTCACGTGGTAAT", "relative binding free energy": 0.32}, {"sequence": "CGTTGCACGTGTTATG", "relative binding free energy": -0.12}, {"sequence": "CGTTACACGTGTATAT", "relative binding free energy": 0.13}, {"sequence": "ATGGGCACGTGCAATG", "relative binding free energy": -0.13}, {"sequence": "CGAATCACGTGTGTTA", "relative binding free energy": 0.2}, {"sequence": "TGAGTCACGTGAGTCT", "relative binding free energy": 0.25}, {"sequence": "AGCGGCACGTGTGAGG", "relative binding free energy": 0.07}, {"sequence": "TAAAGCACGTGGTAGT", "relative binding free energy": -0.19}, {"sequence": "AGAATCACGTGGGTGT", "relative binding free energy": 0.11}, {"sequence": "TGAGGCACGTGATCGT", "relative binding free energy": -0.11}, {"sequence": "GTTTTCACGTGGCAGG", "relative binding free energy": 0.26}, {"sequence": "TATAGCACGTGAGGGG", "relative binding free energy": 0.17}, {"sequence": "GCTTACACGTGTAGTG", "relative binding free energy": 0.05}, {"sequence": "AATCGCACGTGTTATG", "relative binding free energy": -0.02}, {"sequence": "GTTTCCACGTGTGCTG", "relative binding free energy": 0.26}, {"sequence": "GCTTTCACGTGTGATT", "relative binding free energy": 0.37}, {"sequence": "ACGTTCACGTGTCGGT", "relative binding free energy": 0.14}, {"sequence": "GTCAACACGTGTGTGT", "relative binding free energy": 0.03}, {"sequence": "GTGATCACGTGGCTAG", "relative binding free energy": 0.06}, {"sequence": "AGGTGCACGTGCTGTC", "relative binding free energy": -0.11}, {"sequence": "TTTTCCACGTGAGGGA", "relative binding free energy": 0.27}, {"sequence": "TTGGCCACGTGCGATT", "relative binding free energy": 0.09}, {"sequence": "TTAGGCACGTGATTGG", "relative binding free energy": 0.02}, {"sequence": "AAGAACACGTGTTGGG", "relative binding free energy": 0.02}, {"sequence": "CTTTTCACGTGGGGCT", "relative binding free energy": 0.09}, {"sequence": "GAGATCACGTGCGGTG", "relative binding free energy": 0.21}, {"sequence": "TAAAGCACGTGGGTAG", "relative binding free energy": -0.22}, {"sequence": "TTTCGCACGTGAGGCG", "relative binding free energy": 0.18}, {"sequence": "CAGTGCACGTGGTTTG", "relative binding free energy": -0.01}, {"sequence": "ATGTACACGTGATGCT", "relative binding free energy": 0.13}, {"sequence": "GTAATCACGTGCGTGG", "relative binding free energy": -0.01}, {"sequence": "TTTAGCACGTGGGGAC", "relative binding free energy": -0.14}, {"sequence": "AAATTCACGTGTTCGG", "relative binding free energy": 0.13}, {"sequence": "GCGGGCACGTGAGTTT", "relative binding free energy": 0.2}, {"sequence": "GTCGACACGTGTGCGG", "relative binding free energy": 0.06}, {"sequence": "TGCTTCACGTGGGGCT", "relative binding free energy": 0.12}, {"sequence": "TTGTGCACGTGGGCGT", "relative binding free energy": -0.18}, {"sequence": "AGTTTCACGTGGTGGA", "relative binding free energy": 0.33}, {"sequence": "GTAATCACGTGGTTGG", "relative binding free energy": 0.26}, {"sequence": "TTAACCACGTGTGTTA", "relative binding free energy": 0.01}, {"sequence": "CATCGCACGTGTTAGG", "relative binding free energy": 0.16}, {"sequence": "TGTGACACGTGAACTG", "relative binding free energy": 0.33}, {"sequence": "GTAATCACGTGTTGGA", "relative binding free energy": 0.17}, {"sequence": "TTAGTCACGTGGAATG", "relative binding free energy": 0.11}, {"sequence": "GTTTGCACGTGAAGAG", "relative binding free energy": 0.24}, {"sequence": "CAGGACACGTGAGGTT", "relative binding free energy": 0.27}, {"sequence": "TGGGGCACGTGACTCG", "relative binding free energy": 0.09}, {"sequence": "TGTGTCACGTGGACGT", "relative binding free energy": 0.07}, {"sequence": "CTGGGCACGTGTGTCG", "relative binding free energy": -0.18}, {"sequence": "GTTGTCACGTGGCCTG", "relative binding free energy": 0.05}, {"sequence": "TATTGCACGTGGTGAG", "relative binding free energy": -0.05}, {"sequence": "GATTTCACGTGTATAA", "relative binding free energy": 0.44}, {"sequence": "ATGGTCACGTGTATAT", "relative binding free energy": 0.1}]}]}
